doi:10.1101/2025.11.14.688473
These are yes or no findings as the source states them, for the method shown. For some of these results: Binding seen in cells or lysates may run through a third protein. Some results given as binding are weak or reduced against the parent protein; the word gives no strength. Where a sequence is shown, tags or fusion partners need not be part of it.

T1: BD-Atg9 (S. cerevisiae) (UniProt Q12142)
T1 sequence: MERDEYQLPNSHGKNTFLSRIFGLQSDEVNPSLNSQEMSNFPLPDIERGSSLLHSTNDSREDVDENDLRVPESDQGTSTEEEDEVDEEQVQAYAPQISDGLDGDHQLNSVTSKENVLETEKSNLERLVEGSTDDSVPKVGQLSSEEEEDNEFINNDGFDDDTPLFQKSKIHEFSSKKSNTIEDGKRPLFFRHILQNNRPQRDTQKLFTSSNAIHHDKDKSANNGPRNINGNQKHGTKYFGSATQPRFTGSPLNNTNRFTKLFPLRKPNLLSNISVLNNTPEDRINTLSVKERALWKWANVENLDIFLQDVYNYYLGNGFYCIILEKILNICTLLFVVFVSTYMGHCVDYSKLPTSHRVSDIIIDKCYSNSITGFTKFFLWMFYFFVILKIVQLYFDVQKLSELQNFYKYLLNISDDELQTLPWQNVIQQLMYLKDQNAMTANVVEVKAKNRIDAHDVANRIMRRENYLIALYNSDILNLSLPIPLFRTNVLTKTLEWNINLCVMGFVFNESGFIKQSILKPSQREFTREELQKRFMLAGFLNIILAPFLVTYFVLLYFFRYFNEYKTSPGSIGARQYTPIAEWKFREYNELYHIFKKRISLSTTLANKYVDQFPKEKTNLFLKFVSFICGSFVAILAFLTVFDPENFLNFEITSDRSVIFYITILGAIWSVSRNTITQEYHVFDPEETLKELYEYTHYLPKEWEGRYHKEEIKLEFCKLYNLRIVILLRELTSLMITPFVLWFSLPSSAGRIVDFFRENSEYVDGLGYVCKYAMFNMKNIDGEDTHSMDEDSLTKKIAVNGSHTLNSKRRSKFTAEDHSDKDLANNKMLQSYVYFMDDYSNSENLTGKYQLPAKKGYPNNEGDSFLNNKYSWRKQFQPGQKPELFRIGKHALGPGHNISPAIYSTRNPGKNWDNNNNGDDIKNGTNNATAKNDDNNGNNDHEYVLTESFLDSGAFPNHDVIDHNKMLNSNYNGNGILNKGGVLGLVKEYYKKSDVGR

T2: Atg9-PA (S. cerevisiae) (UniProt Q12142)
T2 sequence: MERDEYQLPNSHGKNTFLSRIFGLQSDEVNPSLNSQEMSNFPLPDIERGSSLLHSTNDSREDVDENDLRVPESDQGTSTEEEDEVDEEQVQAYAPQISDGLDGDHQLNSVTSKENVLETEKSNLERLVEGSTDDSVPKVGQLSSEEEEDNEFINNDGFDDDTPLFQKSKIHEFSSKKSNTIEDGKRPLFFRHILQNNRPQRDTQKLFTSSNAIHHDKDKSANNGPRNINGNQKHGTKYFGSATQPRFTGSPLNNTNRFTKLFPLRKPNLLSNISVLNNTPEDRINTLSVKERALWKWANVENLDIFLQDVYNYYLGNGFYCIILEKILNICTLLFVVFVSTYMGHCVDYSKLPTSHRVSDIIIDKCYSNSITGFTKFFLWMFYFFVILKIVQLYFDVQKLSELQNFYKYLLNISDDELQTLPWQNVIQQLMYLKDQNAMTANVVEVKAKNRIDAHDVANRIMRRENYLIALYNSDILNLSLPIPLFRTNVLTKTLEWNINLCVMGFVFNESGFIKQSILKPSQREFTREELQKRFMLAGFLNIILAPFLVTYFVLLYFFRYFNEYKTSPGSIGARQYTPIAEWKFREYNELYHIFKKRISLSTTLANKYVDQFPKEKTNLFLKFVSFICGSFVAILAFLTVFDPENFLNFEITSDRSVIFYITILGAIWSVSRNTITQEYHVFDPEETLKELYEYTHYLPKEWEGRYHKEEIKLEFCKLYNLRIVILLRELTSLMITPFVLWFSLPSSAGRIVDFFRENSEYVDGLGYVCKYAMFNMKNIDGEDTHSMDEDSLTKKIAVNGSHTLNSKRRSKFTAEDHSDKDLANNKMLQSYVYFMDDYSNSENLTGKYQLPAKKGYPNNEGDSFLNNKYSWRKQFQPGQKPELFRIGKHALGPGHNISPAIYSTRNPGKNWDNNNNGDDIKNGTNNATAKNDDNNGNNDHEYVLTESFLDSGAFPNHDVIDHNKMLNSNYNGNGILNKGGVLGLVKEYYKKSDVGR


How the values were obtained:
BD-Atg9 (S. cerevisiae) = molecular target: T1, BD-Atg9 (S. cerevisiae); assay: two-hybrid; BD-ATG9 and AD-ATG11 or mutants in multiple-knockout yeast YCY149 (lacking 25 ATG genes); growth on SMD -ura -leu -his with 1.5 mM 3-amino-triazol, 4-5 days at 30°C
Atg9-PA (S. cerevisiae) = molecular target: T2, Atg9-PA (S. cerevisiae); assay: co-IP; overexpressed GFP-Atg11 or mutants precipitated by overexpressed Protein A-tagged Atg9; blots probed with anti-GFP; washes at 4°C; as in Meyer et al., 2022

binding (BD-Atg9 (S. cerevisiae)) | binding (Atg9-PA (S. cerevisiae)) | Binder
no binding |  | AD-atg11ΔCC2 (protein, UniProt Q12527) MADADEYSTAPTQQEITPLQTTATIINAISGECITTNVDFFVSLDKFKQFIARKWKIPPDQLLILLPYGNKLKPSMFKELLINRSFTLNDFYVYDRRLFSLVSKPTPTNLLTSKDSNPMNSPNSNDLTETLEYLIKNSHISQYQGSDTIMIKPMPSPLEDADVDLSRLNYHSVTSLLTTNLGWLSALEIDVHYFKSLIPDIIAHIKRIFDGLTVCSQYLKLYCFDVESLYNSNVQFLNQLVDNGMTSKWEKCFNDTLSKLTALEGDSLQKFINIESLLENEKSVKILNHSINGKLNKIKREIDENASFRDIITVNIDRLRQMFTPNESKFELEDQMAESFEVLVSEMRTRSRNVLDKEEEEFNSQEFLKSMNVMLEKDKKESVKTLFTISQALYSQIGELIDLKKSLQKHAVAILGNIAFTQMEILGIKRLLLNECNKDLELYKKYEVEFAQVEDLPLIYGLYLIEKYRRLSWFQQILSFISNFNQDLELFKQNELRTRNKWVKNFGSIATVFCEDLLSSSDFKRLNEYHSHTSPPIIDLLSKTLFETKRFHIIYSNFKNNNNNSSNGNSISPEGSIALKSDDVVKGYKTRIKKLESLLHEFQYSDIGHWPQGVLNTHLKPFRGSATSINKKKFLGASVLLEPANISEVNIDSVSQANNHQIQELESNVDDLLHQLQLLKEENNRKSMQISEMGKKISDLEVEKTAYRETLTNLNQELARLTNEEQSHRTEIFTLNASFKKQLNDIISQDNEKIEKLTGDYDDVSKSRERLQMDLDESNKKHEQEVNLLKADIERLGKQIVTSEKSYAETNSSSMEKGEKFETIPLAEDPGRENQISAYTQTLQDRIFDIISTNIFILENIGLLLTFDNNNNIQIRRVKGLKKGTAQSNILDESTQMLDAHDNSLIKSPVFQKLKDEYELIKSVANGSEKDTQQSIFLGNITQLYDNKLYEVAVIRRFKDIETLAKKLTKENKIKRTLLERFQREKVTLRNFQIGDLALFLPTRENVNSVGSMSSSTSSLSSSFSSVDLSTPPPLDAMSIQSSPSVIHSNVINQASISGRDKNKLMRPWAAFTAFEESTRYFLKDEKGLTKGKEWFVGRIVTLEHFVADSPSNNPFRLPKGSVWFQVTAVVVSYQGV
 | binds | GFP-Atg11 (wild type) (protein, UniProt Q12527 1-1178) MADADEYSTAPTQQEITPLQTTATIINAISGECITTNVDFFVSLDKFKQFIARKWKIPPDQLLILLPYGNKLKPSMFKELLINRSFTLNDFYVYDRRLFSLVSKPTPTNLLTSKDSNPMNSPNSNDLTETLEYLIKNSHISQYQGSDTIMIKPMPSPLEDADVDLSRLNYHSVTSLLTTNLGWLSALEIDVHYFKSLIPDIIAHIKRIFDGLTVCSQYLKLYCFDVESLYNSNVQFLNQLVDNGMTSKWEKCFNDTLSKLTALEGDSLQKFINIESLLENEKSVKILNHSINGKLNKIKREIDENASFRDIITVNIDRLRQMFTPNESKFELEDQMAESFEVLVSEMRTRSRNVLDKEEEEFNSQEFLKSMNVMLEKDKKESVKTLFTISQALYSQIGELIDLKKSLQKHAVAILGNIAFTQMEILGIKRLLLNECNKDLELYKKYEVEFAQVEDLPLIYGLYLIEKYRRLSWFQQILSFISNFNQDLELFKQNELRTRNKWVKNFGSIATVFCEDLLSSSDFKRLNEYHSHTSPPNEDEEDENENSIANYRQDLVKVSQAIDNYMTQIKETDVSEPIIDLLSKTLFETKRFHIIYSNFKNNNNNSSNGNSISPEGSIALKSDDVVKGYKTRIKKLESLLHEFQYSDIGHWPQGVLNTHLKPFRGSATSINKKKFLGASVLLEPANISEVNIDSVSQANNHQIQELESNVDDLLHQLQLLKEENNRKSMQISEMGKKISDLEVEKTAYRETLTNLNQELARLTNEEQSHRTEIFTLNASFKKQLNDIISQDNEKIEKLTGDYDDVSKSRERLQMDLDESNKKHEQEVNLLKADIERLGKQIVTSEKSYAETNSSSMEKGEKFETIPLAEDPGRENQISAYTQTLQDRIFDIISTNIFILENIGLLLTFDNNNNIQIRRVKGLKKGTAQSNILDESTQMLDAHDNSLIKSPVFQKLKDEYELIKSVANGSEKDTQQSIFLGNITQLYDNKLYEVAVIRRFKDIETLAKKLTKENKIKRTLLERFQREKVTLRNFQIGDLALFLPTRENVNSVGSMSSSTSSLSSSFSSVDLSTPPPLDAMSIQSSPSVIHSNVINQASISGRDKNKLMRPWAAFTAFEESTRYFLKDEKGLTKGKEWFVGRIVTLEHFVADSPSNNPFRLPKGSVWFQVTAVVVSYQGV
 | binds | GFP-Atg11 YDL (protein, UniProt Q12527 1-1178) MADADEYSTAPTQQEITPLQTTATIINAISGECITTNVDFFVSLDKFKQFIARKWKIPPDQLLILLPYGNKLKPSMFKELLINRSFTLNDFYVYDRRLFSLVSKPTPTNLLTSKDSNPMNSPNSNDLTETLEYLIKNSHISQYQGSDTIMIKPMPSPLEDADVDLSRLNYHSVTSLLTTNLGWLSALEIDVHYFKSLIPDIIAHIKRIFDGLTVCSQYLKLYCFDVESLYNSNVQFLNQLVDNGMTSKWEKCFNDTLSKLTALEGDSLQKFINIESLLENEKSVKILNHSINGKLNKIKREIDENASFRDIITVNIDRLRQMFTPNESKFELEDQMAESFEVLVSEMRTRSRNVLDKEEEEFNSQEFLKSMNVMLEKDKKESVKTLFTISQALYSQIGELIDLKKSLQKHAVAILGNIAFTQMEILGIKRLLLNECNKDLELYKKYEVEFAQVEDLPLIYGLYLIEKARRLSWFQQILSFISNFNQDLELFKQNELRTRNKWVKNFGSIATVFCEAALSSSDFKRLNEYHSHTSPPNEDEEDENENSIANYRQDLVKVSQAIDNYMTQIKETDVSEPIIDLLSKTLFETKRFHIIYSNFKNNNNNSSNGNSISPEGSIALKSDDVVKGYKTRIKKLESLLHEFQYSDIGHWPQGVLNTHLKPFRGSATSINKKKFLGASVLLEPANISEVNIDSVSQANNHQIQELESNVDDLLHQLQLLKEENNRKSMQISEMGKKISDLEVEKTAYRETLTNLNQELARLTNEEQSHRTEIFTLNASFKKQLNDIISQDNEKIEKLTGDYDDVSKSRERLQMDLDESNKKHEQEVNLLKADIERLGKQIVTSEKSYAETNSSSMEKGEKFETIPLAEDPGRENQISAYTQTLQDRIFDIISTNIFILENIGLLLTFDNNNNIQIRRVKGLKKGTAQSNILDESTQMLDAHDNSLIKSPVFQKLKDEYELIKSVANGSEKDTQQSIFLGNITQLYDNKLYEVAVIRRFKDIETLAKKLTKENKIKRTLLERFQREKVTLRNFQIGDLALFLPTRENVNSVGSMSSSTSSLSSSFSSVDLSTPPPLDAMSIQSSPSVIHSNVINQASISGRDKNKLMRPWAAFTAFEESTRYFLKDEKGLTKGKEWFVGRIVTLEHFVADSPSNNPFRLPKGSVWFQVTAVVVSYQGV
 | binds | GFP-Atg11 YDLL (protein, UniProt Q12527 1-1178) MADADEYSTAPTQQEITPLQTTATIINAISGECITTNVDFFVSLDKFKQFIARKWKIPPDQLLILLPYGNKLKPSMFKELLINRSFTLNDFYVYDRRLFSLVSKPTPTNLLTSKDSNPMNSPNSNDLTETLEYLIKNSHISQYQGSDTIMIKPMPSPLEDADVDLSRLNYHSVTSLLTTNLGWLSALEIDVHYFKSLIPDIIAHIKRIFDGLTVCSQYLKLYCFDVESLYNSNVQFLNQLVDNGMTSKWEKCFNDTLSKLTALEGDSLQKFINIESLLENEKSVKILNHSINGKLNKIKREIDENASFRDIITVNIDRLRQMFTPNESKFELEDQMAESFEVLVSEMRTRSRNVLDKEEEEFNSQEFLKSMNVMLEKDKKESVKTLFTISQALYSQIGELIDLKKSLQKHAVAILGNIAFTQMEILGIKRLLLNECNKDLELYKKYEVEFAQVEDLPLIYGLYLIEKARRLSWFQQILSFISNFNQDLELFKQNELRTRNKWVKNFGSIATVFCEAALSSSDFKRANEYHSHTSPPNEDEEDENENSIANYRQDLVKVSQAIDNYMTQIKETDVSEPIIDLLSKTLFETKRFHIIYSNFKNNNNNSSNGNSISPEGSIALKSDDVVKGYKTRIKKLESLLHEFQYSDIGHWPQGVLNTHLKPFRGSATSINKKKFLGASVLLEPANISEVNIDSVSQANNHQIQELESNVDDLLHQLQLLKEENNRKSMQISEMGKKISDLEVEKTAYRETLTNLNQELARLTNEEQSHRTEIFTLNASFKKQLNDIISQDNEKIEKLTGDYDDVSKSRERLQMDLDESNKKHEQEVNLLKADIERLGKQIVTSEKSYAETNSSSMEKGEKFETIPLAEDPGRENQISAYTQTLQDRIFDIISTNIFILENIGLLLTFDNNNNIQIRRVKGLKKGTAQSNILDESTQMLDAHDNSLIKSPVFQKLKDEYELIKSVANGSEKDTQQSIFLGNITQLYDNKLYEVAVIRRFKDIETLAKKLTKENKIKRTLLERFQREKVTLRNFQIGDLALFLPTRENVNSVGSMSSSTSSLSSSFSSVDLSTPPPLDAMSIQSSPSVIHSNVINQASISGRDKNKLMRPWAAFTAFEESTRYFLKDEKGLTKGKEWFVGRIVTLEHFVADSPSNNPFRLPKGSVWFQVTAVVVSYQGV
